According to PubChem BioAssay AID1240 (Sanford-Burnham Center for Chemical Genomics, 2008):
Among all 50,000 compounds or so, about 800 (1.6%) showed an effect of 50% or more. The list shows a part of the results.

What follows are compounds tested against Bcl-2-like protein 10 (Homo sapiens) (UniProt Q9HD36) (assay: Phenotype converters, Bcl-B/TR3 peptide binding displacement, primary biochemical FP (AID 1240;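 also: 0% = Bcl-B with tracer peptide and DMSO and 100% = tracer peptide lacking Bcl-B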)). Conditions: GST-Bcl-B / FITC-TR3 peptide fluorescence polarization; stronger effect = higher value; compound at 3.75 mg/L.
Chain of UniProt Q9HD36 (Q9HD36 whole entry, looked up): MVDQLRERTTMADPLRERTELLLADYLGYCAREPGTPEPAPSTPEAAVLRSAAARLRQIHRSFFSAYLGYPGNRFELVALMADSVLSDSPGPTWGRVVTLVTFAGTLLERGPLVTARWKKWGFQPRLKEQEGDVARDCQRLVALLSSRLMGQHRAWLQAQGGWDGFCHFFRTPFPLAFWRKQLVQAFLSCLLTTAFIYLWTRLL
For `COC(C(=O)N/N=C/c1ccc2c3c(cccc13)CC2)c1ccccc1` (stereo not given), the displacement was 1.9%. `O=C1C(=O)N(c2cccnc2)C(c2cccc(F)c2)/C1=C(\O)c1ccc(Cl)cc1` (stereo not given) was tested, and the displacement was -3.5%. `Cc1cc(C)c(OCCNC(C)(C)C)c(Cl)c1` gave a displacement of -2.1%. With `COc1cc(NC(=O)COc2ccc(Cl)c(C)c2)ccc1NC(=O)c1ccco1` the displacement was -6.3%. Work on `Nc1nnc(Cc2ccc(Cl)cc2Cl)s1` yielded a displacement of -4%. For `O=[N+]([O-])c1cc(-n2ncnc2-c2cccs2)ccc1F`, the displacement was 16.1%. With `CCOC(=O)C1CCN(C(=S)Nc2ccc(OCC)cc2)CC1` the displacement was -2.6%. With `CCC(=O)Oc1ccc2c(C)c(CC)c(=O)oc2c1I` the displacement was -0.6%. Compound `CCOc1ccc(-c2cc(C(=O)NN)c3ccccc3n2)cc1` has a displacement of -18%. With `O=C(O)CCCC1OC(CCCC(=O)O)OC(CCCC(=O)O)O1` (stereo not given) the displacement was 0.6%. `O=C1c2ccccc2C(=O)N1c1ccc2c(c1)C(=O)N(c1ccccc1)C2=O` showed a displacement of -2.4%. With `O=C(COc1ccccc1)Nc1cccc(NC(=O)c2ccco2)c1` the displacement was -10.7%. `NNC(=O)/C(=C\c1cccs1)NC(=O)c1ccccc1` was tested, and the displacement was -14.5%. With `Cc1ccccc1OCC(=O)Nc1ccccc1CO` the displacement was -7.8%. With `COCCNC(=O)CN(c1ccc(C)c(Cl)c1)S(C)(=O)=O` the displacement was -6.8%. With `COc1cccc(/C=C/C(=O)c2ccc(F)cc2)c1` the displacement was 3.6%. Work on `CCOC(=O)c1c(NC(=O)c2cc(OC)c(OC)c(OC)c2)sc2c1CCC(C)C2` (stereo not given) yielded a displacement of 5.9%. Compound `CCc1nn2c(N)c(C=C3C=C(Cl)C(=O)C(Cl)=C3)c(=O)nc2s1` has a displacement of -1.8%. In the case of `CC(C)(C)c1cc(N)c(O)c(C(C)(C)C)c1`, the displacement is reported as -1.9%. For `O=C(/C=C/c1ccc(-c2ccccc2[N+](=O)[O-])o1)NCc1ccccc1`, the displacement was -12.8%. In the case of `O=C1c2cc(S(=O)(=O)Nc3ccncc3)ccc2-c2ccc(S(=O)(=O)Nc3ccncc3)cc21`, the displacement is reported as 14.2%. Compound `Cn1c(=O)c2c(nc3n2CC(=O)N3c2ccc(F)cc2F)n(C)c1=O` has a displacement of 7.3%. For `CCOC(=O)Cc1c(C)n2nc(C)cc2[nH]c1=O`, the displacement was 8%. For `Cc1ccc(S(=O)(=O)C(CC(=O)c2ccccc2)c2ccc(Cl)cc2)cc1` (stereo not given), the displacement was -7.1%. `Cc1ccc(NC(=O)c2ccc(NC(=O)c3ccc(Cl)cc3Cl)cc2)cc1` showed a displacement of 11.5%. In the case of `CC1=NN(c2ccccc2)C(=O)/C1=C\c1ccc(N2CCOCC2)c([N+](=O)[O-])c1`, the displacement is reported as 13.4%. Compound `Cc1ccccc1-n1c(=O)c2ccccc2n2c(=O)[nH]nc12` has a displacement of 15.9%. For `C=CCSc1nnc(-c2ccc(Br)cc2)o1`, the displacement was -8.1%. Compound `NNC(=O)COc1ccc(-c2cc(-c3ccccc3)c3cc(Br)ccc3n2)cc1` has a displacement of -7%. `C=CCN(CC=C)C(=O)c1cc(Cl)ccc1[N+](=O)[O-]` gave a displacement of -2.9%. For `CN(C)CCCNC(=O)/C=C/c1ccc(Cl)cc1`, the displacement was 14%. In the case of `Cc1cc(N=CC2=C(O)CC(C)(C)CC2=O)no1`, the displacement is reported as -3.3%. `Cc1cc(C)cc(CSCC(=O)Nc2c(C)cccc2C)c1` was tested, and the displacement was -1.8%. `Cc1ccc2c(c1)-c1c(ssc1=S)C(C)(C)N2C(=O)Cc1ccc(F)cc1` was tested, and the displacement was 0.2%. Work on `Cc1c(Cc2ccccc2)c(=O)oc2cc(OCc3ccc([N+](=O)[O-])cc3)ccc12` yielded a displacement of -7.1%. Compound `O=C1c2cccc3cccc(c23)C(=O)N1Nc1ccc([N+](=O)[O-])cc1` has a displacement of 3.8%. In the case of `O=C1c2ccccc2C(=O)N1c1ncc(Cc2cccc(Cl)c2Cl)s1`, the displacement is reported as -9.2%. In the case of `CC1=C(C)CC(C(=O)Nc2ccc(Br)cc2)C(C(=O)O)C1` (stereo not given), the displacement is reported as -5.8%. `CC1=NN(c2ccccc2)C(=O)/C1=C\c1ccc(-c2cc([N+](=O)[O-])ccc2O)o1` was tested, and the displacement was 17.6%. `Cc1ccc(C2Nc3ccc(C(=O)c4ccccc4)cc3NC3=C2C(=O)CCC3)o1` (stereo not given) gave a displacement of -19.8%. In the case of `Cc1ccc(S(=O)(=O)NC(C)c2ccccc2)cc1` (stereo not given), the displacement is reported as -7.7%. `COc1ccc(N(CC(=O)NC2CCCCC2)S(=O)(=O)c2ccccc2)cc1Cl` showed a displacement of 7.2%. Compound `CCCCCc1c(O)nc(SCC(=O)O)[nH]c1=O` has a displacement of -10.3%. Compound `O=C1CC(c2ccccc2)CN1C(=O)c1cncc(Br)c1` (stereo not given) has a displacement of -9.6%. `Nc1nc2ccccc2n1Cc1ccccc1` was tested, and the displacement was 14.2%. `Nc1nnc(CSc2ccccc2)s1` was tested, and the displacement was 5%. Compound `Cc1cc(C)c(C)c(OCCCCCCN2CCCC2)c1` has a displacement of 9%. Compound `COc1cccc(N2C(=O)NC(=O)C(=Cc3ccc(N(C)C)cc3)C2=O)c1` has a displacement of 0.5%. `Cc1ccc(N(CC(=O)NCc2ccncc2)S(=O)(=O)c2ccccc2)cc1C` gave a displacement of 11.8%. `CC(Oc1cc2oc(=O)c3c(c2cc1Cl)CCCC3)C(=O)c1ccccc1` (stereo not given) was tested, and the displacement was -5.1%. With `CCC1CCc2c(sc(NC(=O)c3cc4ccccc4oc3=O)c2C#N)C1` (stereo not given) the displacement was -1.3%. Compound `O=C(O)C1CC(O)CN1C(=S)Nc1ccccc1` (stereo not given) has a displacement of 2.4%. Compound `Cc1ccc(Nc2ncnc3ccc(Br)cc23)cc1C` has a displacement of 1.3%. Compound `CCOC(=O)C(CCOc1c(C)cc(Cl)cc1C)C(=O)OCC` has a displacement of -5.7%. `Cc1cc(NC(=O)c2cccc3c(Br)cccc23)ccc1NC(=O)c1ccco1` was tested, and the displacement was -6.6%.
